Results reported in the supplement of paper PMC4604168 (melanoma cell lines).
The other results are listed elsewhere or left out. Repeats are few or missing, and single values can be far off.

The molecules below were run on IPC-298 (assay: cell count relative to DMSO control; melanoma cells; higher = more viable cells). Conditions: library dose: standard library concentration; 72 h.
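Note: cells treated in 1,536-well plates, then fixed and DAPI-stained, with nuclei counted from automated high-throughput microscope images.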

| SMILES | cell count [%] |
| --- | --- |
| CC1(C)NC(=O)N(c2ccc([N+](=O)[O-])c(C(F)(F)F)c2)C1=O [nilutamide] + Oc1cc(-c2nc(-c3ccccc3)[nH]c2-c2ccncc2)ccc1Cl [L779450] (first compound 5 µM, partner dose 1 µM) | 89 |
| O=C(O)c1ccc(-c2c[nH]c3ncc(-c4ccccc4)cc23)cc1C1CCCC1 + O=C1NC(=O)/C(=C/c2ccc(-c3ccc(F)cc3O)o2)S1 [AS252424] (first compound 0.8 µM, partner dose 5 µM) | 77 |
| O=C(Nc1cccc(Cl)c1)Nc1ncc(CCNc2ncnc3ccsc23)s1 + CN(C)S(=O)(=O)c1ccc2c(c1)/C(=C/c1cc3c([nH]1)CCCC3)C(=O)N2 [SU6656] (first compound 0.004 µM, partner dose 2 µM) | 43.8 |
| O=c1[nH]nc(Sc2ncc([N+](=O)[O-])s2)n1-c1ccc2c(c1)OCCO2 + O=C(/C=C/c1cccnc1)NCCCCC1CCN(C(=O)c2ccccc2)CC1 [FK866] (first compound 1 µM, partner dose 0.05 µM) | 31 |
| O=C(O)c1ccc(-c2c[nH]c3ncc(-c4ccccc4)cc23)cc1C1CCCC1 + CC(C)CCN1c2nc(Nc3cc(F)c(O)c(F)c3)ncc2N(C)C(=O)C1C [BID1870] (first compound 0.8 µM, partner dose 1 µM) | 73.7 |
| O=C(O)c1ccc(-c2c[nH]c3ncc(-c4ccccc4)cc23)cc1C1CCCC1 + COc1cc2ncnc(Nc3ccc(Oc4ccccc4)cc3)c2cc1OC [SrcI1] (first compound 0.8 µM, partner dose 10 µM) | 67 |
